We go through 77 variants from the supplement of paper PMC7125110.

± gives the standard error. Variants at the floor of the assay are shown more often than the library holds them. Where only a bound is given, the exact number is not on record here.

To fix the notation:
B1: glmS ribozyme (parent)
chain: AUAAAAGCGCCAGAACUACAGAAAUGUAGUUGACGAGGAGGAGGUUUAUCGAAUUUUCGGCGGAUGCCUCCAAA

Variants of B1 are the subject of one data set. Put plainly: self-cleavage kobs at 160 uM GlcN6P; higher = faster cleavage; RNA array. The settings on record: with glucosamine-6-phosphate. The essentials:
(§1)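 Tracking of barcoded ribozyme variants used a hybridised Cy3 probe at 37 °C, after in situ transcription by E. coli RNA polymerase on sequenced MiSeq chips. The flowed solution held 40 μM to 10 mM glucosamine-6-phosphate in HEPES/KCl/Mg(OAc)2 buffer, and imaging ran over ~14 h. kobs was taken from exponential decay fits of normalised per-tile medians, and kcat and KM from weighted Michaelis–Menten fits.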
Regarding U49G U57G, the “self-cleavage kobs at 160 uM GlcN6P” value is less than 1e-05 s⁻¹.

As for G43C C61A U69C, the “self-cleavage kobs at 160 uM GlcN6P” value was less than 1e-05 s⁻¹. The same measure, in the same setting: the same measure for A36G G40C A52U U55A A64U: less than 1e-05 s⁻¹. Same read-out and setting: to A39U G51U G62U C71A belongs less than 1e-05 s⁻¹; to G35A U54C C70U, less than 1e-05 s⁻¹. On the same count and under the same terms, the same measure for C34U A39C: less than 1e-05 s⁻¹; for G40U A42C A48G: less than 1e-05 s⁻¹. As for A36C G51C, the “self-cleavage kobs at 160 uM GlcN6P” value was less than 1e-05 s⁻¹.

Consider G32U G38U U54G, for which the “self-cleavage kobs at 160 uM GlcN6P” value was less than 1e-05 s⁻¹. Same read-out and setting: to A42U G43U G60A belongs less than 1e-05 s⁻¹; to A48U U65A, less than 1e-05 s⁻¹.

Regarding G32A A33C C34G G60C, the “self-cleavage kobs at 160 uM GlcN6P” value was less than 1e-05 s⁻¹.

For the variant U31A G60U C70G, the “self-cleavage kobs at 160 uM GlcN6P” value is less than 1e-05 s⁻¹. Still for that read-out and setting: to A42U C68U C70G belongs less than 1e-05 s⁻¹; to G66U C71G, less than 1e-05 s⁻¹; to A33U G63U A64U, less than 1e-05 s⁻¹. On to G41U C67U, for which the “self-cleavage kobs at 160 uM GlcN6P” value was less than 1e-05 s⁻¹.

In the case of A39U G41A G62U, the “self-cleavage kobs at 160 uM GlcN6P” value was less than 1e-05 s⁻¹. On the same count and under the same terms, the same measure for G37U G59C G63U: less than 1e-05 s⁻¹; for G32U A33U G43U: less than 1e-05 s⁻¹. On the same count and under the same terms, to G41U U57C A64U belongs less than 1e-05 s⁻¹; to U47C C50U, less than 1e-05 s⁻¹. The same measure, in the same setting: to G32A A52C G63A A64C belongs less than 1e-05 s⁻¹; to U45C C67U C68A, less than 1e-05 s⁻¹.

Variants of B1 are the subject of a further data set. Put plainly: self-cleavage kobs at 2500 uM GlcN6P; higher = faster cleavage; RNA array. The settings on record: with glucosamine-6-phosphate. The method in brief: as §1
For U49G U57G, the “self-cleavage kobs at 2500 uM GlcN6P” value was less than 1e-05 s⁻¹. On the same count and under the same terms, the same measure for G43C C61A U69C: less than 1e-05 s⁻¹; for C10A G13U U56A G62U: less than 1e-05 s⁻¹; for A39U G51U G62U C71A: less than 1e-05 s⁻¹.

Take C11A U31G A33U G37U U56A: the “self-cleavage kobs at 2500 uM GlcN6P” value was less than 1e-05 s⁻¹. Turning to C10A A12U U45C A64U, the “self-cleavage kobs at 2500 uM GlcN6P” value was less than 1e-05 s⁻¹. Same read-out and setting: to A6G A39U U57G A64C belongs less than 1e-05 s⁻¹. Still for that read-out and setting: the same measure for G35A U54C C70U: less than 1e-05 s⁻¹; for A6U A36G G37U: less than 1e-05 s⁻¹; for C8U G29C G60U: less than 1e-05 s⁻¹.

As to G7C U30C A39C, the “self-cleavage kobs at 2500 uM GlcN6P” value is less than 1e-05 s⁻¹. The same measure, in the same setting: the same measure for G9A A39C G63A C70G: less than 1e-05 s⁻¹; for C11G A48C C58G: less than 1e-05 s⁻¹. Still for that read-out and setting: to A6U G37U G40U belongs less than 1e-05 s⁻¹; to G9A A14G G41U, less than 1e-05 s⁻¹. Still for that read-out and setting: to C8G G32A G40C U45G G59U C71G belongs less than 1e-05 s⁻¹; to G7C C16A C70U, less than 1e-05 s⁻¹.

As for C11U A14G C61A U69G, the “self-cleavage kobs at 2500 uM GlcN6P” value is less than 1e-05 s⁻¹. On the same count and under the same terms, the same measure for C11G G32C G59C G66A: less than 1e-05 s⁻¹; for G9C U31G G59U: less than 1e-05 s⁻¹. The same measure, in the same setting: to G7U C10G U31A U49C belongs less than 1e-05 s⁻¹; to G32A A33C C34G G60C, less than 1e-05 s⁻¹. For A6U G38C U69C, the “self-cleavage kobs at 2500 uM GlcN6P” value is less than 1e-05 s⁻¹.

Regarding A42U C68U C70G, the “self-cleavage kobs at 2500 uM GlcN6P” value was less than 1e-05 s⁻¹. The same measure, in the same setting: to A6U G9A C61A belongs less than 1e-05 s⁻¹; to A12C A42U U65A C70A, less than 1e-05 s⁻¹. As to A6C A14C C16G A64C, the “self-cleavage kobs at 2500 uM GlcN6P” value was less than 1e-05 s⁻¹. Same read-out and setting: the same measure for C10U G26A: 7.4e-05 ± 2.8e-05 s⁻¹.

Turning to G7C A53G C70A, the “self-cleavage kobs at 2500 uM GlcN6P” value was less than 1e-05 s⁻¹. G9U G13C U65A: the “self-cleavage kobs at 2500 uM GlcN6P” value was less than 1e-05 s⁻¹. Same read-out and setting: the same measure for A12G G35U A39C: less than 1e-05 s⁻¹; for C10A G40C U55A C58U U69G C70G: less than 1e-05 s⁻¹; for G9C A15U G66C C70G: less than 1e-05 s⁻¹. Turning to C11U A20C G43A, the “self-cleavage kobs at 2500 uM GlcN6P” value was less than 1e-05 s⁻¹. Same read-out and setting: to C11U U31G G60U belongs less than 1e-05 s⁻¹; to A39U G41A G62U, less than 1e-05 s⁻¹. Turning to G9A A36C U45G G51C A64G, the “self-cleavage kobs at 2500 uM GlcN6P” value is less than 1e-05 s⁻¹.

In the case of C8U C10U A15U G41A U57G, the “self-cleavage kobs at 2500 uM GlcN6P” value was less than 1e-05 s⁻¹.

Turning to A6C C34U U45A U46G G51U, the “self-cleavage kobs at 2500 uM GlcN6P” value is less than 1e-05 s⁻¹. The same measure, in the same setting: to A6U G29A C34U belongs less than 1e-05 s⁻¹; to A12C A14C G43A A64U, less than 1e-05 s⁻¹; to C11U C34G U54C, less than 1e-05 s⁻¹. On to A6U C10A U31A U46C A48C, for which the “self-cleavage kobs at 2500 uM GlcN6P” value is less than 1e-05 s⁻¹.

For G37U G59C G63U, the “self-cleavage kobs at 2500 uM GlcN6P” value is less than 1e-05 s⁻¹.

Consider G9A G40C U56A, for which the “self-cleavage kobs at 2500 uM GlcN6P” value was less than 1e-05 s⁻¹. Take C10U A36G G66A: the “self-cleavage kobs at 2500 uM GlcN6P” value is less than 1e-05 s⁻¹. Take C8U G35C C67G: the “self-cleavage kobs at 2500 uM GlcN6P” value was less than 1e-05 s⁻¹.

Regarding C10A G13C G35U G41C C67U, the “self-cleavage kobs at 2500 uM GlcN6P” value was less than 1e-05 s⁻¹. For the variant A6C U47C A53U, the “self-cleavage kobs at 2500 uM GlcN6P” value is less than 1e-05 s⁻¹. Still for that read-out and setting: the same measure for G7U U47G A52U: less than 1e-05 s⁻¹; for C10A G21U C34U G38A A48U U54A C71U: less than 1e-05 s⁻¹.

For G32U A33U G43U, the “self-cleavage kobs at 2500 uM GlcN6P” value is less than 1e-05 s⁻¹. The same measure, in the same setting: the same measure for C10U G13C C16U: less than 1e-05 s⁻¹. C11A A14C U45C: the “self-cleavage kobs at 2500 uM GlcN6P” value is less than 1e-05 s⁻¹. Turning to C8G A15G C16U A36G, the “self-cleavage kobs at 2500 uM GlcN6P” value is less than 1e-05 s⁻¹.

In the case of C10U A42U G51U C61G C71U, the “self-cleavage kobs at 2500 uM GlcN6P” value was less than 1e-05 s⁻¹. For A6C A14G U46G A48U C58A, the “self-cleavage kobs at 2500 uM GlcN6P” value was less than 1e-05 s⁻¹. Still for that read-out and setting: the same measure for C11G A48U G59U: less than 1e-05 s⁻¹. Same read-out and setting: the same measure for C10A C16U A64U: less than 1e-05 s⁻¹; for C10G A36C G37C G40C G60U G66U: less than 1e-05 s⁻¹; for C11G A15U U55G C71U: less than 1e-05 s⁻¹. The same measure, in the same setting: the same measure for G32A A52C G63A A64C: less than 1e-05 s⁻¹; for G9C G40C G51U: less than 1e-05 s⁻¹.

Variants of B1 are the subject of another data set. Put plainly: self-cleavage kobs at 10000 uM GlcN6P; higher = faster cleavage; RNA array. The settings on record: with glucosamine-6-phosphate. The method in brief: as §1
Turning to C34U A39C, the “self-cleavage kobs at 10000 uM GlcN6P” value is less than 1e-05 s⁻¹. As to A36C G51C, the “self-cleavage kobs at 10000 uM GlcN6P” value is less than 1e-05 s⁻¹. For A6U G38C U69C, the “self-cleavage kobs at 10000 uM GlcN6P” value is less than 1e-05 s⁻¹.

Take G41U C67U: the “self-cleavage kobs at 10000 uM GlcN6P” value came to 2.83e-05 ± 1.1e-05 s⁻¹. On to C10U A42U G51U C61G C71U, for which the “self-cleavage kobs at 10000 uM GlcN6P” value is less than 1e-05 s⁻¹. On the same count and under the same terms, to C10G A36C G37C G40C G60U G66U belongs less than 1e-05 s⁻¹.
